The values that follow come from patent US20250161441A1, “MEDICINE COMPRISING COMBINATION OF ANTI-MUTANT-CALR ANTIBODY AND ANOTHER DRUG” (JUNTENDO EDUCATIONAL FOUNDATION, priority 2022, published 2025).

In the data set the test system is UT-7/TPO/Ins 5-Luc cells. Description: T cell-dependent cellular cytotoxicity (TDCC) of bispecific antibody plus combined drug, luciferase viability readout. The following applies: human T cells, E/T=10, 48 hours, CI by Chou-Talalay method (CompuSyn), CI < 0.7 synergistic, < 0.3 strong synergistic, around 1 additive. The format is cell-based. The method, then: UT-7/TPO/Ins 5-Luc cells as target cells were cultured with T cells in the presence of the bispecific antibodies and hydroxyurea, ruxolitinib, or interferon α, and then the viability of the target cells was determined using luciferase activity as an indicator to evaluate T cell-dependent cellular cytotoxicity (hereinafter referred to as TDCC).
The T cells were isolated and concentrated from healthy human blood using RosetteSep Human T Cell Enrichment Cocktail ([…] technologies) or from healthy human peripheral blood mononuclear cells (PBMCs) using Pan T cell isolation kit (Miltenyi biotech). […]
The cell viability of each well was calculated using the chemiluminescence value of a control well without bispecific antibody and combined drug as 100%.
The combination effect was evaluated using a combination index (CI). The CI was calculated using CompuSyn software (Combosyn, Inc.) based on the Chou-Talalay method (Chou T. C. & Talalay, P.: Adv. Enz. Regul. 22: 27-55, 1984). A CI below 0.7 is determined to have a synergistic effect, and a CI below 0.3 is determined to have a strong synergistic effect. A CI of around 1 is determined to have an additive effect.

B1: Antibody 5: anti-mutant CALR/CD3 bispecific antibody, H chain SEQ ID NO: 181, L chain SEQ ID NO: 202 (antibody)
heavy: QVQLVQSGAEVKKPGSSVKVSCKASGYTFTRNFIHWIRQAPGQGLEWIGWIFPGDADTEYNQKFSGRVTITADKSTSTAYMELSSLRSEDTAVYYCARGNYNYEYFDYWGQGTMVTVSSASTKGPSVFPLAPSSKSTSGGTAALGCLVKDYFPEPVTVSWNSGALTSGVHTFPAVLQSSGLYSLSSVVTVPSSSLGTQTYICNVNHKPSNTKVDKRVEPKSCGGGGSQVQLVQSGGGVVQPGRSLRLSCKASGYTFTRYTMHWVRQAPGKGLEWIGYINPSRGYTNYNQKVKDRFTISRDNSKNTAFLQMDSLRPEDTGVYFCARYYDDHYSLDYWGQGTPVTVSSGGGGSGGGGSGGGGSDIQMTQSPSSLSASVGDRVTITCSASSSVAYMNWYQQTPGKAPKRWIYDTSKLASGVPSRFSGSGSGTDYTFTISSLQPEDIATYYCQQWSSNPFTFGQGTKLQITR[human IgG1 Fc with changes skipped]
light: DIQMTQSPSSLSASVGDRVTITCLASEDIYSYLAWYQQKPGKAPKLLIFAANRLQSGVPSRFSGSGSGTDFTLTISSLQPEDFATYYCLQGSKFPYTFGPGTKVDIKRTVAAPSVFIFPPSDEQLKSGTASVVCLLNNFYPREAKVQWKVDNALQSGNSQESVTEQDSKDSTYSLSSTLTLSKADYEKHKVYACEVTHQGLSSPVTKSFNRGEC
With B1, the “CI (Cytotoxicity at level of 85%)” value came to 0.29 (combined drug hydroxyurea) and 0.11 (combined drug interferon α).
